# According to PubChem BioAssay AID720708 (National Center for Advancing Translational Sciences (NCATS), 2013):
# The whole screen tested about 360,000 compounds, of which about 660 (0.18%) were called active. Inconclusive means that the source gave no clear call. Such entries were picked first, then a sample of the others. Calls come from the whole dose curve; as a rule, active = well fitted inhibition curve with a large enough effect; inconclusive = small, poorly fitted or top-dose-only effect; inactive = no such curve, though single readings can be large or run the other way. No potency is given beside an inconclusive call; the fits are too rough.
# Target: Rap guanine nucleotide exchange factor 4 (Homo sapiens) (UniProt Q8WZA2)
# UniProt Q8WZA2, sequence (Q8WZA2 whole entry, looked up): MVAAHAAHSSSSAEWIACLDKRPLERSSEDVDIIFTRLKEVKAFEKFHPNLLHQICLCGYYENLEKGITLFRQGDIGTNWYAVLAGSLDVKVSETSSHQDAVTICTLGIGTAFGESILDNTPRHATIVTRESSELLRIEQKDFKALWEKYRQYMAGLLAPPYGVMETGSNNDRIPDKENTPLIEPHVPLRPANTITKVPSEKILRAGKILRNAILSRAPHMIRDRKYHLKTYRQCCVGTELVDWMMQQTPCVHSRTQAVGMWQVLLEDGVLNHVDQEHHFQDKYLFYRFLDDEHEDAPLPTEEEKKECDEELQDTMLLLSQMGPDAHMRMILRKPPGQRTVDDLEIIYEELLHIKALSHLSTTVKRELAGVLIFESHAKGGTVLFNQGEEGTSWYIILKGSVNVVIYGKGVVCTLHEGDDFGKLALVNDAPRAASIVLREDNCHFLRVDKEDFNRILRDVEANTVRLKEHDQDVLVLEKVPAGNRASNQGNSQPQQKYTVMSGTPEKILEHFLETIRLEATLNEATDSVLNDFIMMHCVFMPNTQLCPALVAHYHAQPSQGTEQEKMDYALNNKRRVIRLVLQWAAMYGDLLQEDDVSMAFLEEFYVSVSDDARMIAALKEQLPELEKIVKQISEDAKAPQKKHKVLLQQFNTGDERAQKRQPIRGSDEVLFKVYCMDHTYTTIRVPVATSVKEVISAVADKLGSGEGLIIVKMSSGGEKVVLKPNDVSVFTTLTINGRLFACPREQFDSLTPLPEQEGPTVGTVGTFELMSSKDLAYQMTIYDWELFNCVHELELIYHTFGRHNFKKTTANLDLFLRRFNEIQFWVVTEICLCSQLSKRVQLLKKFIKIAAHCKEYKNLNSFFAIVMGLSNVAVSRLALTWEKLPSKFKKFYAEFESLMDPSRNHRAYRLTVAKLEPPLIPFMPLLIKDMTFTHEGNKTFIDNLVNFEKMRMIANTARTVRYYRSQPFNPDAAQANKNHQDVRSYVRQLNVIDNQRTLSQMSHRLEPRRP
# Experiment: qHTS for Antagonist of cAMP-regulated guanine nucleotide exchange factor 2 (EPAC2): primary screen; note: nearly all actives have a fitted effect of over 45% in size
# Details: EPAC2 GEF exchange of Rap1B-BODIPY-GDP, fluorescence; activity, negative = inhibition: at 114 µM (top of the series) unless noted
# % is set by controls: 0 for no effect and ±100 for the full control effect; potency is the fitted concentration of half-maximal effect; tags give direction and shape of the fitted curve.
Structure (SMILES),Potency,"activity, negative = inhibition"
COc1ccc([C@@]2(C(C)C)ON(c3ccccc3C(F)(F)F)C2=O)cc1,"inconclusive [inhibitor, full curve, poor fit]",–
COc1cc(NS(=O)(=O)c2ccc(NC(=S)NC(=O)c3ccc(F)cc3)cc2)nc(OC)n1,"inconclusive [inhibitor, single point]",–
O=[N+]([O-])c1cc(Cc2ccccc2)cc(C=Nc2ccc(N3CCOCC3)cc2)c1O,"inconclusive [inhibitor, single point]",–
Cc1ccc(NC(=O)CN(C)C(C)C(=O)Nc2ccc(S(=O)(=O)N3CCCC3)cc2)cc1 (configuration not stated),"inconclusive [inhibitor, single point]",–
CCOC=C1SC(=S)N(c2ccccc2OC)C1=O,"inconclusive [inhibitor, partial curve]",–
Clc1ccc2nc(C3CCCCC3)c(CC3CCCCC3)n2c1,"inconclusive [inhibitor, single point]",–
O=C1NN(c2cccc(Br)c2)C(=O)/C1=C\c1ccc(O)cc1,–,inactive: 12.8%
O=C1CC(N2CCN(c3ccccc3)CC2)C(=O)N1c1ccc(Cl)cc1 (configuration not stated),–,inactive: -10.4%
c1cc2c3c(cccc3c1)-c1cnccc1-2,"inconclusive [inhibitor, single point]",–
O=C(CSc1nc2ccc(N3CCOCC3)cc2c(=O)n1CCc1ccccc1)NCC1CCCO1 (configuration not stated),–,inactive: -4.54%
CN1CCc2cc3c(c4c2[C@H]1[C@H](O)c1ccccc1-4)OCO3,"inconclusive [inhibitor, single point]",–
COc1ccc(C=C2SC(=O)NC2=O)cc1OC,"inconclusive [inhibitor, partial curve]",–
CCOC(=O)c1c(NC(=O)C2COc3ccccc3O2)sc(C)c1C (configuration not stated),"inconclusive [inhibitor, single point]",–
CC(=O)n1cc(N(C(=O)CCl)c2ccccc2)c2ccccc21,"inconclusive [inhibitor, partial curve]",–
CNC(=S)N/N=C(\C)c1ccc(Cl)c(Cl)c1,–,inactive: -12.6%
CCOC(=O)N1CCC(NC(=O)c2cc3sccc3n2CC)CC1,–,inactive: -9.71%
CCOC(=O)Cc1csc(NC(=O)/C=C/c2ccc(Cl)cc2)n1,–,inactive: 2.49%
CCCNc1ncnc2nc[nH]c12,–,inactive: -4.42%
Cc1ccc(C2=Nc3ccccc3N=C(C(Cl)Cl)C2)cc1,"inconclusive [inhibitor, full curve, poor fit]",–
CC1(C)CC2(C)CC(=O)C1C(C(=O)O)C2C(=O)O (configuration not stated),–,inactive: 8.55%
CC1CCC(NC(=O)c2cc3c(s2)CCCC3)CC1 (configuration not stated),"inconclusive [inhibitor, full curve, poor fit]",–
Cc1ccc(C(=O)O/N=C(\c2ccccc2)c2cccnc2)cc1,"inconclusive [inhibitor, partial curve]",–
CC(=O)Nc1ccc(N2CCCC2)cc1,–,inactive: -5.32%
CC(=O)c1ccc(OCC(=O)N(C)CC(=O)Nc2ccc(N3CCOCC3)cc2)cc1,"inconclusive [inhibitor, single point]",–

Structure (SMILES),Potency,"activity, negative = inhibition"
CSc1ccc(/C=N/NC(=O)CN2CCN(Cc3ccc(Cl)cc3)CC2)cc1,"inconclusive [inhibitor, partial curve]",–
COc1ccc(/C(C)=N/NC(=S)NCCc2ccccc2)c(O)c1,"inconclusive [inhibitor, single point]",–
COc1ccccc1C(=O)Nc1ccnn1C1CCN(Cc2cn(C)c3ccccc23)CC1,–,inactive: -0.802%
CCCCCn1c(C(Cc2ccccc2)NC(=O)COC)nc2ccccc21 (configuration not stated),"inconclusive [inhibitor, partial curve]",–
CC(C)CC(C)c1cc(N)nc2nc3ccccc3n12 (configuration not stated),–,inactive: -21.4%
COc1ccc(C2CC2/C(=N/O)c2ccccc2)cc1 (configuration not stated),"inconclusive [inhibitor, partial curve]",–
COCCN1Cc2cccc(C(=O)NCCCN3CCCC3=O)c2C1=O,"inconclusive [inhibitor, single point]",–
CN1OC[C@@H]2CN(S(=O)(=O)c3cc(Cl)cc(Cl)c3)[C@H](c3ccc(-c4ccc(C#N)cc4)cc3)C[C@@H]21,"inconclusive [inhibitor, single point]",–
CC(C)C(=O)NC(c1ccc(Cl)cc1Cl)c1ccc2cccnc2c1O (configuration not stated),"inconclusive [inhibitor, full curve]",–
O=C1Nc2ccc(Cl)cc2C(C#CC2CC2)(C(F)(F)F)O1 (configuration not stated),"inconclusive [inhibitor, full curve]",–
COc1ccc(N(C(=O)c2ccccc2)S(=O)(=O)c2cccs2)cc1,"inconclusive [inhibitor, partial curve]",–
CCc1nc2ccc(C(=O)Nc3ccc(NC(C)=O)cc3)cn2c1N(C)CCCc1ccccc1,"inconclusive [inhibitor, full curve, poor fit]",–
CSC1=NCCN1C(=O)c1ccc2c(c1)OCO2,–,inactive: -3.59%
CCOc1ccccc1NC1c2ccccc2C(=O)N1Cc1ccco1 (configuration not stated),active: 15.8 µM,–
Cc1cc(C(=O)c2ccc3ccccc3c2)c(C)o1,"inconclusive [inhibitor, partial curve]",–
CC(NC(=S)NC(=O)c1cccs1)c1ccccc1 (configuration not stated),"inconclusive [inhibitor, partial curve]",–
COc1ccc(/C=C/C(=O)NCCCN2CCCCCC2)cc1,–,inactive: -0.306%
CCC(C)Nc1nc(N)c([N+](=O)[O-])c(N2CCCCCC2)n1 (configuration not stated),"inconclusive [inhibitor, single point]",–
COc1ccc(C(=O)Cc2cc3ccccc3oc2=O)cc1,–,inactive: 0.226%
Cc1nnc(N/N=C/c2ccc(-c3ccc(Br)cc3)o2)n1N,–,inactive: 1.06%
COc1ccc(O)c(-c2cc(-c3cccs3)[nH]n2)c1,"inconclusive [inhibitor, partial curve]",–
CCOC(=O)C1=C(N)Oc2ccc3ccccc3c2C1c1ccc(O)cc1 (configuration not stated),"inconclusive [inhibitor, partial curve]",–
C#CCOCCOCCOCCNc1nc(N2CCN(C(=O)CCCCCCCCCCNC(=O)Cn3cc(CCCCCN)nn3)CC2)nc(N2CCN(C(=O)CCCCCCCCCCNC(=O)[C@@H](CCSC)n3cc(CCO)nn3)CC2)n1,"inconclusive [inhibitor, partial curve]",–
